# From patent publication US20240360192A1 (BEIJING VDJBIO, published 2024)
# B1: IL-2-HSA fusion protein (ligand)
# chain: not shown
# notes: also called fusion protein of interleukin 2; VDJ010
# Assays:
# [1] = molecular target: Rat IL-2R (rIL2R, self-made, 20220111) (rat, UniProt P26897 22-235; P26896 27-239); experiment: BLI, rIL2R captured on hFc probe, IL-2-HSA as analyte
# [2] = molecular target: T1, Mouse IL-2R (mIL2R, BIOSYSTEMS, ILGM5253) (mouse); experiment: BLI, mIL2R captured on ProA probe, IL-2-HSA as analyte
# T1 construct: also called mouse IL-2 receptor
# [3] = molecular target: T2, Dog IL-2R (CaIL2R, self-made, 20220421) (dog, UniProt O62802 22-237; P40321 23-261); experiment: BLI, CaIL2R captured on hFc probe, IL-2-HSA as analyte
# T2 construct: also called dog IL-2 receptor
# [4] = molecular target: T3, Human IL-2R (hIL2R, BIOSYSTEMS, ILGH5257) (human, UniProt P01589 22-240; P14784 27-240; P31785 23-262); experiment: BLI, hIL2R captured on ProA probe, IL-2-HSA as analyte
# T3 construct: also called human IL-2 receptor; not shown: the vendor's exact limits and how the subunits are joined; copies: 1 + 1 + 1
# T3 sequence (alpha): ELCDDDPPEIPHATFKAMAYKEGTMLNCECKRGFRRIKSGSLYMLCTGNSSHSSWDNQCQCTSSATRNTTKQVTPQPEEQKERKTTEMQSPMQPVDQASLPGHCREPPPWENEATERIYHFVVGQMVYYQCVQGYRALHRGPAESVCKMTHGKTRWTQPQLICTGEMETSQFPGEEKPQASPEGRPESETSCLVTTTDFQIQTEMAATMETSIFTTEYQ
# T3 sequence (beta): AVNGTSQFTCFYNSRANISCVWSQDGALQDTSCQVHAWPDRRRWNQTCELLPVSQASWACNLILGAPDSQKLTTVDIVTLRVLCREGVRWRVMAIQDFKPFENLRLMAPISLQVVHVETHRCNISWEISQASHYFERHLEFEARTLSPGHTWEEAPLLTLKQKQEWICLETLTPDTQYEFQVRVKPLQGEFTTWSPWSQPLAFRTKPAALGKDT
# T3 sequence (gamma): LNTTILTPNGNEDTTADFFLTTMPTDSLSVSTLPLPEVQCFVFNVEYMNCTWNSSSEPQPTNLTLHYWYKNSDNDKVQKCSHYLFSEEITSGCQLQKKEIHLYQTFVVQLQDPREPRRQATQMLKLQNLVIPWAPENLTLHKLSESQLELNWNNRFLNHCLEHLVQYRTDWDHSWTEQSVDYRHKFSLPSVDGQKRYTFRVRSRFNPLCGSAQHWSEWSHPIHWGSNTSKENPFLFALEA
binder,measurement,setting,value
B1,Kd,[1],0.311 nM
same,koff,[1],0.000549 s⁻¹
same,kon,[1],1.77e+06 M⁻¹ s⁻¹
same,Kd,[2],0.538 nM
same,koff,[2],0.000887 s⁻¹
same,kon,[2],1.65e+06 M⁻¹ s⁻¹
same,Kd,[3],0.13 nM
same,koff,[3],0.000412 s⁻¹
same,kon,[3],3.16e+06 M⁻¹ s⁻¹
same,Kd,[4],0.086 nM
same,koff,[4],0.000169 s⁻¹
same,kon,[4],1.96e+06 M⁻¹ s⁻¹
